# Assay results published in patent US20260355182A1, “ISOQUINOLINE DERIVATIVE, SYNTHESIS METHOD THEREFOR, AND USE THEREOF” (Harbin Gloria Pharmaceuticals Co., Ltd., priority 2023, published 2026).
# Tested on: SH-SKN cell lines
# Test: Mitochondrial respiration (Seahorse mitochondrial stress test, OCR)
# Type: cell-based, human
# Conditions: 10 μM, 12 hours
# Protocol: All drugs were used at 10 μM. The experiment was repeated 3 times to 5 times.
row,Compound,Activity of enhancing mitochondrial respiration (in words)
1,Nc1nc(N2CCN(C(=O)[C@H]3CCCO3)CC2)cc2cc3c(cc12)OCCO3 [Compound T10],no activity of activating mitochondrion
2,Nc1nc(N2CCN(C(=O)c3ccco3)CC2)cc2cc3c(cc12)OCO3 [Compound T11],no activity of activating mitochondrion

# Same assay, conditions: Homo sapiens, 12 hours, vs DMSO control, read-out: Increase in Maximal Mitochondrial Respiration
row,Compound,activation at 10 µM [%]
1,Nc1nc(N2CCN(C(=O)[C@@H]3CCCO3)CC2)cc2cc3c(cc12)OCO3 [Compound T2],17.8 ± 2.2
2,Nc1nc(N2CCN(C(=O)[C@H]3CCCN3)CC2)cc2cc3c(cc12)OCO3 [Compound T8],19.2 ± 3.8
3,Nc1nc(N2CCN(C(=O)[C@H]3CCCO3)CC2)cc2cc3c(cc12)CCO3 [Compound T5],16.6 ± 0.8
4,Nc1nc(N2CCN(C(=O)[C@H]3CCCO3)CC2)cc2cc3c(cc12)OCCO3 [Compound T10],6.3 ± 0.4
5,Nc1nc(N2CCN(C(=O)C3CCCC3)CC2)cc2cc3c(cc12)OCO3 [Compound T7],21.5 ± 4.1
6,Nc1nc(N2CCN(C(=O)[C@H]3CCCO3)CC2)cc2cc3c(cc12)OCO3 [Compound T1],22.1 ± 3.1
7,Nc1nc(N2CCN(C(=O)c3ccco3)CC2)cc2cc3c(cc12)OCO3 [Compound T11],8.6 ± 0.6
8,CC1Oc2cc3cc(N4CCN(C(=O)[C@H]5CCCO5)CC4)nc(N)c3cc2O1 (stereo partly shown) [Compound T3],15.3 ± 0.9
9,CC1(C)Oc2cc3cc(N4CCN(C(=O)[C@H]5CCCO5)CC4)nc(N)c3cc2O1 [Compound T4],18.1 ± 0.7
10,Nc1nc(N2CCN(C(=O)[C@@H]3CCCN3)CC2)cc2cc3c(cc12)OCO3 [Compound T9],20.1 ± 0.8
11,Nc1nc(N2CCN(C(=O)[C@H]3CCCO3)CC2)cc2cc3c(cc12)OCC3 [Compound T6],26.3 ± 3.6
